Test results taken from publication PMC7819943, “Rice protein-binding microarrays: a tool to detect cis-acting elements near promoter regions in rice”.
The other results are listed elsewhere or left out.

molecular target: T1, OsWOX13 (Oryza sativa, UniProt Q5QMM3 1-267); assay: protein-binding microarray (RPBM); PBS, 2% BSA, 51.3 ng/ul salmon testes DNA, 50 uM zinc acetate, 200 nM TF, 25 C, 1 h; high values mean tight binding; conditions: protein: recombinant; tags: N-terminal polyhistidine and DsRed monomer fusion (pET32a); label: CyDye5-dUTP incorporated in the synthesized complementary strand; 3' TTTTT single-stranded linker to array surface; dsDNA, one strand shown
T1 sequence: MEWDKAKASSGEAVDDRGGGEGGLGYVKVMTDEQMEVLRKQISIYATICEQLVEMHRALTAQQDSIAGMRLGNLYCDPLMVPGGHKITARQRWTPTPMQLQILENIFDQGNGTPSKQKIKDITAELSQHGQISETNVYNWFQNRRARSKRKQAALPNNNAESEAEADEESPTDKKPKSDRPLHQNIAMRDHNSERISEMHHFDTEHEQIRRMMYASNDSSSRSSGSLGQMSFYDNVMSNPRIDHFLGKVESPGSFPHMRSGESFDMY
In short: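 Polyhistidine-tagged DsRed fusions of transcription factors, joined at the N-terminus, were expressed in E. coli BL21-CodonPlus and isolated on Ni–NTA. They were incubated at 200 nM for 1 h at 25 °C on a custom Agilent array, double-stranded and BSA-blocked, in PBS with 2% BSA, salmon testes DNA and 50 µM zinc acetate. The binding signal is per-feature fluorescence intensity (arbitrary units) read on an Axon 4000B scanner after washing.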

| Sequence | binding signal |
| --- | --- |
| GTAGTAATAAATTGAACTCTGGTTCGATAGTGTTCGATTTCGGAGTCACCTAGTGCAG | 12800 fluorescence intensity (a.u.) |
| CGCCATAATTGCATCCCCTATTCTTCGCCACCACCATCGCCGGAGTCACCTAGTGCAG | 25700 fluorescence intensity (a.u.) |
| CACTTTAAATTTAAATTATTAGAATTGCTATAGATACTGTCGGAGTCACCTAGTGCAG | 33500 fluorescence intensity (a.u.) |
| AGTGAGTGGTGGAGGGTTGTGATTGGATGAGTAGTGAAGGCGGAGTCACCTAGTGCAG | 4630 fluorescence intensity (a.u.) |
| AATTTAAGTAATTATTTATTCTTTTCATATCATTTGATTCCGGAGTCACCTAGTGCAG | 4230 fluorescence intensity (a.u.) |
| GTAAATTTGGTATTAAAGCTGTACTTAATAATTTGATCGACGGAGTCACCTAGTGCAG | 5960 fluorescence intensity (a.u.) |
| ATCTCAATCAGCAACACAAATGACCCTGACCCACGATCCACGGAGTCACCTAGTGCAG | 20900 fluorescence intensity (a.u.) |
| AACTGAAAATGATGGGTTCAATTAACATGTTCTCCTCACGCGGAGTCACCTAGTGCAG | 11700 fluorescence intensity (a.u.) |
| CAAATTCTATCTATCTAATATCTATAAATTTCATCTGCACCGGAGTCACCTAGTGCAG | 3320 fluorescence intensity (a.u.) |
| GGAATTGATCCTGAATTTGCTACTAAGAAATTAATGTAAACGGAGTCACCTAGTGCAG | 6040 fluorescence intensity (a.u.) |
| CCAAAATTGAAAGTTTGACTAAAATTGAAAGTTTGAAGAACGGAGTCACCTAGTGCAG | 15700 fluorescence intensity (a.u.) |
| AAATCTAATTAAATAAATTATCTATGTTTAAAAGAGTAATCGGAGTCACCTAGTGCAG | 11600 fluorescence intensity (a.u.) |
| TGTATAATTTGTAATCACAATGGCGGCATATACTTCTATCCGGAGTCACCTAGTGCAG | 21600 fluorescence intensity (a.u.) |
| TAGATTTTAATTTCAATCAAATTTTCAATTTTAACGTGAACGGAGTCACCTAGTGCAG | 27800 fluorescence intensity (a.u.) |
| CAACATGGTAAATTGATTCTAACTAATTCTAATATGTATGCGGAGTCACCTAGTGCAG | 19400 fluorescence intensity (a.u.) |
| TCCAATTACCATGACACTATATATCAAATTTCAAAGTTGACGGAGTCACCTAGTGCAG | 3880 fluorescence intensity (a.u.) |
| ATCAAACTAATTAGTTAATGTAGATTATCTATAACAAAGACGGAGTCACCTAGTGCAG | 23700 fluorescence intensity (a.u.) |
| TTAGATTGCAGATGAACCGTAACTAACGGCGTCTGCAAAACGGAGTCACCTAGTGCAG | 4910 fluorescence intensity (a.u.) |
| ACGGAGGGTGTAATAATCAATCAATCCTATGTTAATTGTTCGGAGTCACCTAGTGCAG | 15800 fluorescence intensity (a.u.) |
| GTGTCCATCATAGCATGATGATGATGATGCGCATTCGCCACGGAGTCACCTAGTGCAG | 5000 fluorescence intensity (a.u.) |
| GAACAAATCTTAAATATAATTATGTACCGTATAATTGGCTCGGAGTCACCTAGTGCAG | 13500 fluorescence intensity (a.u.) |

| Sequence | binding signal |
| --- | --- |
| ATATTTGATTAGATCGGTAATGGATGGCTATAACGTATGCCGGAGTCACCTAGTGCAG | 58500 fluorescence intensity (a.u.) |
| GTTAATCACATTTTAGATATTGCGCATCGTGGTTAGTTGCCGGAGTCACCTAGTGCAG | 7190 fluorescence intensity (a.u.) |
| TCCAAATAGAGTTTAATAATTTGTTTCCTATACTTCCTACCGGAGTCACCTAGTGCAG | 5130 fluorescence intensity (a.u.) |
| TCTATTTAATTAATCCTAGAGTATCTGTAAGGTACCTTGGCGGAGTCACCTAGTGCAG | 8940 fluorescence intensity (a.u.) |
| AGAGATCTTTGATTTGTGTTTGCTTGGGTTCGGCGGTTCACGGAGTCACCTAGTGCAG | 6460 fluorescence intensity (a.u.) |
| CCTAGCTAATTTCATCTCCCACGCCGAACGGAAACACATCCGGAGTCACCTAGTGCAG | 3360 fluorescence intensity (a.u.) |
| ATTAACCAGTATTAATAATTGAGGGACGTTGTATACTGGGCGGAGTCACCTAGTGCAG | 20500 fluorescence intensity (a.u.) |
| CGAATCTAAACAATCAATATTTAATTATACTTCCTCTAGACGGAGTCACCTAGTGCAG | 12600 fluorescence intensity (a.u.) |
| CGTAATTAGGCTTAAAAGATTCGTCTCGTAATTTACACGCCGGAGTCACCTAGTGCAG | 32500 fluorescence intensity (a.u.) |
| TTAATTGGTCAGTCATCAGTGTGTGTTAGGAACGTACGTACGGAGTCACCTAGTGCAG | 30000 fluorescence intensity (a.u.) |
| TTCAAATTTACAGGGTAAAATGTCAAAGGAAACCGACATTCGGAGTCACCTAGTGCAG | 5490 fluorescence intensity (a.u.) |
| ACAAATGGATTAATGACTGTTTGACTCGCTTGCTCACTAGCGGAGTCACCTAGTGCAG | 34200 fluorescence intensity (a.u.) |
| TTTTAATAATGTAATTCATGAATTTCTTTATTTATCCAAGCGGAGTCACCTAGTGCAG | 6580 fluorescence intensity (a.u.) |
| CGTGTAGTACCAATCAATACGTCTCCAGTTGAGTAAGATACGGAGTCACCTAGTGCAG | 3700 fluorescence intensity (a.u.) |
| AACAAGTAATTTAAATCGTACAAGAATCAAAAGGTCCGAGCGGAGTCACCTAGTGCAG | 6870 fluorescence intensity (a.u.) |
| AATAAAATTGATCACCTATAGCTAGCTAGTAGCTAGTGCCCGGAGTCACCTAGTGCAG | 13100 fluorescence intensity (a.u.) |
| TGGAGTAATTAGGCTTAAAAGATTCGTTTCGTAATTTGCACGGAGTCACCTAGTGCAG | 15600 fluorescence intensity (a.u.) |
| CTTAAATTTAATGCTACTTATTTCACACGATGTCTTGGATCGGAGTCACCTAGTGCAG | 23800 fluorescence intensity (a.u.) |
| CCATGATTAGTCATAAGTGTTACAGTAACCGACATATGCTCGGAGTCACCTAGTGCAG | 32200 fluorescence intensity (a.u.) |
| AAACAGATTAAAATTATCTCGGTTTCTATTAGCATGTTTTCGGAGTCACCTAGTGCAG | 8660 fluorescence intensity (a.u.) |
| ATCATTCAGGTACATCAATTACCAACCACTGAATGTTTGTCGGAGTCACCTAGTGCAG | 3780 fluorescence intensity (a.u.) |
